Data taken from the supplement of paper PMC11417369.
± gives the standard deviation of the averaged measurements. The list shows a part of the results.

These sequences were tested on PfAP2-EXP AP2 domain (GST-tagged) (assay: gcPBM binding intensity (ln(normalized median fluorescence intensity)); higher = stronger DNA binding).
Procedure, shortened: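 Plasmodium falciparum DNA-binding domains carrying a GST tag were expressed in E. coli and applied for 1 h, at about 25 μg on average, to an Agilent 4 × 180k array. The array held primer-extended double-stranded 36-bp intergenic genomic probes together with negative controls, and binding took place in 1× PBS with 1% milk, 0.2 mg/ml BSA, 0.5% salmon testes DNA and 0.03% Triton X-100. An Alexa488 anti-GST antibody detected bound protein, and the array was scanned at 488 nm. Binding intensity is taken as the highest Masliner-normalised natural-log median intensity across replicate spots of either probe orientation.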

Row | Sequence | gcPBM binding intensity (ln)
1 | GTTGAAAAAAATATATGTACGTATATATGTATGTAT [XGTACX_site8201] | 8.86 ± 0.44
2 | TTGTTTATATATATATGTACATATTTTAAGGCATCC [XGTACX_site6976] | 8.79 ± 0.2
3 | CCACGTATACGATGCACACGTATGCTTTATATATAG [CACACA_site4108] | 9.12 ± 0.56
4 | ATTATTACTATATGTGTACACATCAACTGGTTTGAT [CACACA_site5563] | 8.94 ± 0.4
5 | TTGGTAAATATATTTTGAATATAAGAAATATAGACG [CACACA_negctrl_site1634] | 8.63 ± 0.48
6 | TATTTTCAAAATGTTGTACACACAAAAAAAAAAAAA [CACACA_site8437] | 8.6 ± 0.45
7 | ATATACTTTTCAATGTGTACTTATGAATATATATGT [XGTACX_site7972] | 8.54 ± 0.33
8 | TATTTATAAATATGTGTGCACAATTTATTTTATAAT | 8.79 ± 0.15
9 | TTTTTTTTATATATCTGTACATATATATATATATAT [XGTACX_site8280] | 10.1 ± 0.39
10 | TTATTTCTAACATGATGTACTTTTATATTATATAAT [XGTACX_site3574] | 8.64 ± 0.35
11 | AATATATATATAAATAATATACCTATATATTTTTTG [XGTACX_negctrl_site407] | 8.08 ± 0.28
12 | AAAAACAATTTAATCACACATATATGTCACAAAGAT [CACACA_site5043] | 8.79 ± 0.45
13 | CACTTAAAAAGCTAACGTACAAATACACATATATAA [XGTACX_site1851] | 8.47 ± 0.52
14 | ATATTAAATATTATCACACACATAATTATTTCCATA [CACACA_site2334] | 8.48 ± 0.36
15 | ATATAATAATATGGTTGTACATAAATAACACATGAA [XGTACX_site6592] | 8.87 ± 0.43
16 | CAAAATATTTTTTCCTGTACATAATTCCTATTTCAC [XGTACX_site3590] | 8.73 ± 0.39
17 | ATATATATATATATATGTACATACATATTGTTTGGT [XGTACX_site2284] | 10.3 ± 0.76
18 | ATGATTATACAAAATATACACACGTGTAGACAAATA [CACACA_site1175] | 8.87 ± 0.37
19 | TAATAATAGAAACACACACACATAGACATATATATA [CACACA_site1307] | 8.88 ± 0.51
20 | AAGAACCATATTTAAACACACATACCTATATAAATA [CACACA_site7553] | 8.51 ± 0.47
21 | ATAATTATATACCATGCACACAAATATTCATACAGG [CACACA_site9343] | 8.59 ± 0.22
22 | AAAAAATACATACATACACACATATTTATTTATATA [CACACA_site6554] | 8.26 ± 0.35

Row | Sequence | gcPBM binding intensity (ln)
23 | TATATACACATTTTTATACACACTTGTTTTATAAAA [CACACA_site8139] | 8.55 ± 0.4
24 | TTATGCATATATTATGCATGTAGTTTTAAATCACAT [TGCATGCA_site104] | 8.71 ± 0.23
25 | GCACAAATATATATATATATATATATATATATATAT [GTGCAC_negctrl_site661] | 9.91 ± 0.52
26 | TGCCCTAACCATACTACACACACTGCTCAAAATAGT [CACACA_site2219] | 8.84 ± 0.41
27 | TATATATATTTATAATGTACACATATATGTAAATAT [XGTACX_site3695] | 8.51 ± 0.2
28 | TACAATATAAAATACACACACACAAACATATATTTA [CACACA_site5941] | 8.73 ± 0.5
29 | TAAATATATTTATAAGCACACACTAATAAACCCACA [CACACA_site390] | 9.04 ± 0.39
30 | AATTTTTATACGGATACACACAAAAAAAAATAAAAA [CACACA_site897] | 8.64 ± 0.47
31 | AAAATATATTATTATTGTACATATATTTTCATTTAC [XGTACX_site4593] | 8.64 ± 0.29
32 | TTTATTTTGTTTATGGTGCATTTTATGTAAATATAT | 8.935 ± 0.007
33 | TAATGACAATAAAAATAAATAAATAAAAAAAAAAAA [TGCATGCA_negctrl_site321] | 8.19 ± 0.4
34 | AATAAATAAATAAATAAATAAATATATATATATATA [GTGCAC_negctrl_site330] | 10 ± 0.31
35 | ATATATTATCTGTACACACACATATAAGGGATTATA [CACACA_site4180] | 8.76 ± 0.4
36 | TGAAATAAAATTATTTGTACATATCGGAAAAAAAAA [XGTACX_site7131] | 8.53 ± 0.38
37 | TTTTTTGAAAATAAATGTACGAATTTTATATTTAAA [XGTACX_site2768] | 8.14 ± 0.3
38 | AAGAAAATAAAAAGGTAAATATGTATAAATAAATAA [TGCATGCA_negctrl_site88] | 8.65 ± 0.39
39 | AAGGCATATATAATTTGTACATATTAAGAATTAGAT [XGTACX_site8660] | 8.66 ± 0.39
40 | GATACAGATGGACACACACACATACATAAATACATA [CACACA_site5833] | 8.79 ± 0.47
41 | AAATTACCCATCCATACACACATATTTTTTTTAATT [CACACA_site2189] | 8.63 ± 0.38
42 | CAAAAATAATAGAATACATGCAAAAATAAATGTATA [TGCATGCA_site196] | 9 ± 0.071
43 | TTTTTTTTTAAAACATAATAAAAAATAAAACAACCT [GTGCAC_negctrl_site92] | 8.77 ± 0.28
44 | AAAAATAAAGGGTGTGCACACAAAAATATATATATA [CACACA_site1727] | 9.805 ± 0.078

Row | Sequence | gcPBM binding intensity (ln)
45 | ATAATATATTTAATCATACACACATTTATGTACCTA [CACACA_site1719] | 8.5 ± 0.47
46 | ATATATATATATATATGTACATATATATTGTTGATC [XGTACX_site8893] | 10.1 ± 0.26
47 | ATTTAATTCGTACATACACACGCACATATATATATA [CACACA_site8415] | 9.89 ± 0.24
48 | ACATATTATTCAAGTGCACACTTTATATTTATGATT [CACACA_site3295] | 8.83 ± 0.26
49 | AAAAAAAAACAGAAAACACACAAATTATCTTAGAAT [CACACA_site309] | 8.54 ± 0.59
50 | TACAATAATGATTGTTGTACATTATTGATATTTAAA [XGTACX_site2940] | 8.26 ± 0.35
51 | TTTAATTTTTAATCAGTGCAATATTATATAATATAT | 8.445 ± 0.021
52 | TCATTTTAATTAAAAGTGCAAAAAATAATATAACTA [GTGCAC_site9968] | 8.94 ± 0.17
53 | ATTAATTCGTTTTGTACACACATAATGAATAATTTA [CACACA_site2235] | 8.44 ± 0.28
54 | TATATGAAATATTATGCACACAATATATAATATGAT [CACACA_site936] | 8.61 ± 0.32
55 | AATAATTCATCATATGCACACACAATACCAAAATGT [CACACA_site7945] | 8.81 ± 0.42
56 | TTCTTTTTTCGACACACACACACAAGAAGATATATA [CACACA_site7456] | 8.82 ± 0.39
57 | TTAATACATACATTCACACACACTAATTGTATATTT [CACACA_site9362] | 8.64 ± 0.38
58 | ATATATATATATAATACACACTTATGAAATGTCTAA [CACACA_site5077] | 9.93 ± 0.2
59 | TGTACAAATATGTTGAAAATAAAATTTCAATATATT [XGTACX_negctrl_site13] | 8.19 ± 0.28
60 | ATACGAATAAATTTCGCATGCAGCATATATATCAAT [TGCATGCA_site612] | 9.58 ± 0.47
61 | AACGAAAATAAGAAAAGTACAAAAAATACCAAATAA [XGTACX_site6171] | 8.93 ± 0.38
62 | ATATATGCATATATATGTACATATATATATATATAT [XGTACX_site7403] | 9.93 ± 0.4
63 | AATAAATAAAAAATTACACACATATATATAAATATA [CACACA_site3434] | 8.38 ± 0.33
64 | ATATTTTTAGATTCAGAAAAAAGATTCAACTTACTC [CACACA_negctrl_site1357] | 8.25 ± 0.45
65 | TAAATTATAAATTGCACACATATTTTTATATTTATA [CACACA_site2976] | 8.27 ± 0.17
66 | TATTTCATATGAAGAAGTACTATTAATAATTTCCTT [XGTACX_site6587] | 8.3 ± 0.28

Row | Sequence | gcPBM binding intensity (ln)
67 | GAGCGTAATCTATTTGCACACTTATTTGTTCTTAAA [CACACA_site673] | 9.04 ± 0.37
68 | GTGTATAATATAGGATGTACAATAAAACACCGATTG [XGTACX_site7429] | 8.92 ± 0.47
69 | ATAAAAACATAAACAAATCAAAAAAAAAAAAAAAAA [CACACA_negctrl_site13] | 7.9 ± 0.62
70 | TTGTTTATCAACAGCACACACAACAACAACAACAAC [CACACA_site458] | 8.88 ± 0.21
71 | CATTAAAATATGAGATGTACACAATATCTATTATAT [XGTACX_site4979] | 8.55 ± 0.21
72 | ATGGATTATACGTGCACACATATATACCAATAAATA [CACACA_site4524] | 9.11 ± 0.56
73 | AAATAATGAAACAAAGTGCATAAAAATATACATATA [GTGCAC_site9467] | 8.805 ± 0.035
74 | ATTTAAATATCTTCTTTTTTTTTTTTTTTTGAAATT [CACACA_negctrl_site1074] | 8.06 ± 0.42
75 | AATATATAAACCGAACGTACATATTTTTTATACACC [XGTACX_site2121] | 8.56 ± 0.25
76 | GTGTACAGACACAAAATATATACATATATATATATA [CACACA_negctrl_site1796] | 9.87 ± 0.54
77 | TGTTATATGTTCAAATGTACAAATCATATACATGTT [XGTACX_site3192] | 8.45 ± 0.38
78 | TATTTTCATAATAAAAAAAAATAATTTAAAAAATAT [CACACA_negctrl_site748] | 8.13 ± 0.4
79 | ATTATTTTCTCATAGAGTACAAATGTTGTTGTTGTC [XGTACX_site1062] | 8.53 ± 0.42
80 | AATGGCAAAATAGGCACACACACATATACATATATA [CACACA_site1058] | 8.84 ± 0.34
81 | TGTGCACATAATTAGTGTACATTTTTTATTTAGACA [XGTACX_site317] | 8.6 ± 0.071
82 | ATTAGAGAATCGTAACCCAAATGAACATACTTAAAT [GTGCAC_negctrl_site363] | 8.57 ± 0.42
83 | AGATTTAAATATCATACACACTTTATATATAATACA [CACACA_site4688] | 8.33 ± 0.38
84 | CTTATTGATTTAAAAAGTACATATATGTATATACAC [XGTACX_site4072] | 8.52 ± 0.26
85 | AAAAAAAAAAAAAATACACACATATAAATATAAATA [CACACA_site6189] | 8.3 ± 0.49
86 | AATTATATTTGAAATACACACATAAAAATCATATAG [CACACA_site3468] | 8.51 ± 0.39
87 | TTATATAGGTCATTCATAAATACAGTTTTTAAAAAA [CACACA_negctrl_site1340] | 8.24 ± 0.36
88 | AAAAAAAAAAGACACACACACACATAAATATAAATA [CACACA_site6215] | 8.72 ± 0.44
